We go through 14 molecules from article PMC12136788.

Where a chain is given by its changes, count along the chain named. The list shows a part of the results.

T1: UNK ZnF1-3 (human, UniProt Q9C0B0 31-174)
T1 sequence: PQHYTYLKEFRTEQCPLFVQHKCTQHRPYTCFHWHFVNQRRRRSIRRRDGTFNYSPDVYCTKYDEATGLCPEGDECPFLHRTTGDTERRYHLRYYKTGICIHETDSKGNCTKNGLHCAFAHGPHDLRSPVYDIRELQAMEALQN

B1: chr2:48026839:48026840:+_ENSG00000116062_ENST00000540021|hu_hu|hu_hu_hu_mus_False|78_88 (ssRNA)
RNA: GGGAGUUCUACAGUCCGACGAUCAUAGUGAGCCACUAGCGUCCUAAAUCUCGAACAAUGGCGAUCAUCCGAAAACUGGCCGAUGAAAAACUUGCCCAGUGAAGUGUCCACAAAGCAAACACCAUACACACGAGUGUGACCAGACAACAGAGGAUUGAGCAUCA
B2: chr18:61067831:61067832:-_ENSG00000119541_ENST00000238497|hu_mus|FALSE|FALSE (ssRNA)
RNA: GGGAGUUCUACAGUCCGACGAUCAGACACAAGGUCAGAGGAAGAUAUUGAGAAAAAUGUUGAGUUGUUUGCUUCCGUUGCAACAGCUUUAGCCAAAUAAGAUUUUCCUGUUCCUGGUGGUCCAAAUAAUAGGAUUCCUCUCCACAACAGAGGAUUGAGCAUCA
B3: 135087853_135087973_1139_CDS_ENSMUSG00000051177_ENSMUST00000110116|mouse|control|control (ssRNA)
RNA: GGGAGUUCUACAGUCCGACGAUCAAUCAACACUUGGACCUGCUCCUGCUUCAGAGGUGGGUAAAGGAUUUCAUUGAGCCGGGGAUCUCUCUGCUUAAGGUUGAUAAAAUCCAUCAUCUGAUCAACCGUCAGGUACGGUUUGCUCAACAGAGGAUUGAGCAUCA
B4: chr6:64286377:64286378:+_ENSG00000112245_ENST00000370650|hu_mus|FALSE|FALSE (ssRNA)
RNA: GGGAGUUCUACAGUCCGACGAUCACUUGUCUGCAUAGAGGUCGUGCUGUGCCUGGCAGUAAUCUCCACUGCCCUUCAGAAACUCCAUAAAUGUGUGACCGAGAACACCACAGAACUGAGGAAUAUGUCUACUCAUUGAAGAUUCAACAGAGGAUUGAGCAUCA
B5: chr18:35731649:35731650:+_ENSMUSG00000037236_ENSMUST00000166793|perfect_dup|FALSE|FALSE (ssRNA)
RNA: GGGAGUUCUACAGUCCGACGAUCCCCUACCGAGAGAUGACUGCUGGAAUGACUUGGACAUUGUAGAACUAUCUCUUGUCUAUUUUAUAGAUCAAAAAAAAAAAAAAAAGUUUUAAAAGAUGGCCAAAAAGAAAGCUCAAGCUACAACAGAGGAUUGAGCAUCA
B6: chr18:54424204:54424205:+_ENSG00000091157_ENST00000357574|hu_mus|motif|central (ssRNA)
RNA: GGGAGUUCUACAGUCCGACGAUCCCAGGCGUGGAGACAGGACAUGAAUAAUUUUGCGGUAUCCAUAGUAAGGUUGUAUUCGGGUAGGGUCAGUGGCUUGGACUUGCUGGCCCGGUACUCAGGGUCACUAUCCUCCCUGCUCUGCAACAGAGGAUUGAGCAUCA
B7: chr7:140404665:140404666:+_ENSG00000090266_ENST00000247866|hu_hu|hu_hu_hu_mus_False|78_98 (ssRNA)
RNA: GGGAGUUCUACAGUCCGACGAUCUGCUCCUACUCGUAGGCUGAGUCUACAGUGUCAGUCUUCAUCAUCAGGAGGGAUUCCCAGUUCUUCAUCUGUCCACUGUGAAGGAUCUGGAUAUGAAAAGUGACCCAGCACAGCAUCCGACAACAGAGGAUUGAGCAUCA
B8: 108412298_108427553_2264_CDS_ENSG00000108018_ENST00000263054|human|control|control (ssRNA)
RNA: GGGAGUUCUACAGUCCGACGAUCCACCUUCCUGUACCCAGUACUAUUGAGGUAACUCUGUCCCAAGCUGCAAUCCUUUGACAGAGAGGAUGGAUUGAACCAAAAUGCCGGCAGGCACUGGCCAUUGCUGUGUCGCUCAUAACCCAACAGAGGAUUGAGCAUCA
B9: chr17:2203652:2203653:-_ENSG00000070366_ENST00000263073|hu_mus|FALSE|FALSE (ssRNA)
RNA: GGGAGUUCUACAGUCCGACGAUCCCUUCCAGGCUGGUAGAUCUGCAGGUCUGGUUUCUUGCUUCUUUUGAUGAUCUUUAGACUUCGGUCCUCUAGUCCAACAGUCUUUGGAAAAGUUUCCUGUGCCUGACUAUUUUCUGCAUCCAACAGAGGAUUGAGCAUCA
B10: chr6:38652254:38652255:-_ENSG00000124767_ENST00000373365|hu_hu|hu_hu_hu_mus_False|28_78 (ssRNA)
RNA: GGGAGUUCUACAGUCCGACGAUCCGAGAACUUCAUAGCAGGGAAGUCAAGCUUCUGGAUUAGCGUCAGUCCAAGAACCCUCGUAUAAAAAUCCAGGGACUUCUUAGGAUCCUUCACUCUUAGCAUCGUUUGCUGCAGUAGAAACAACAGAGGAUUGAGCAUCA
B11: chr1:54531653:54531654:-_ENSMUSG00000073678_ENSMUST00000097739|mus_hu|FALSE|FALSE (ssRNA)
RNA: GGGAGUUCUACAGUCCGACGAUCACACAAAAGAUGAACUCAUUUCAAAGAACAAUGUAAACUGAACUUAGGCCUUGUACACUAUCUUUUUACUAAUAACACCUAUGGUCCCCAUUAGAAUAAACUGUCACUAAAUCAAGGCCACAACAGAGGAUUGAGCAUCA
B12: chr2:237995794:237995795:+_ENSG00000198612_ENST00000392008|hu_mus|motif|central (ssRNA)
RNA: GGGAGUUCUACAGUCCGACGAUCUAUCCUCUUCCACAGAUAUCUUGCAUUAUUCAUGUCGUUCUGGAGCAAGUACAAAGCGGGAAGCUGACCGUACACUGGCGGUGUGGCAAUUCCUCCAGGAGCCUCGAGUUCCUGGUUCUCCAACAGAGGAUUGAGCAUCA
B13: chr10:36717261:36717262:+_ENSMUSG00000019777_ENSMUST00000019911|perfect_dup|motif|central (ssRNA)
RNA: GGGAGUUCUACAGUCCGACGAUCCUGUUUUAUCUUUUCCAUAUAUUCUGGAGUGUUCUGGUUUGUCAUGUUUGAAGGACGGAUAUGCAGUUUGAAGUCUGGUCCAAAAUACUCAAAGUAAUCAUUAUAUGGCAACUCAUUGGGCAACAGAGGAUUGAGCAUCA
B14: chr6:38652254:38652255:-_ENSG00000124767_ENST00000373365|hu_hu|hu_hu_hu_mus_False|8_48 (ssRNA)
RNA: B10 RNA with G57C, U59G, U60G, C63G, G96U, C114A, C116U, U129C

The target in this assay is T1, UNK ZnF1-3. The assay is described as follows: nsRBNS (natural sequence RNA bind-n-seq); RBNS binding buffer (assumed for nsRBNS): 25 mM Tris pH 7.5, 150 mM KCl, 3 mM MgCl2, 0.01% Triton X-100, 500 ug/ml BSA, 20 U/ml SUPERase-In, 4 C; UNK is unkempt and MSI1 is Musashi-1; names of the RNAs are library labels; protein concentration not given here; high values mean tight binding.
For the molecule B1, the binding signal was 1.21 enrichment R.

As for B2, the binding signal worked out at 1.29 enrichment R. Consider B3, for which the binding signal is 1.3 enrichment R.

Regarding B4, the binding signal amounted to 1.27 enrichment R. In the case of B5 it was 3.14 enrichment R; in that of B6, 1.03 enrichment R.

B7 had a binding signal of 0.815 enrichment R. Molecule B8 registered a binding signal of 1.21 enrichment R. Next, B9: 0.447 enrichment R. As for B10, the binding signal stood at 0.872 enrichment R. In turn, B11 had a binding signal of 1.1 enrichment R.

For B12, the binding signal came to 0.677 enrichment R.

In the case of B13, the binding signal amounted to 0.998 enrichment R.

Turning to B14, the binding signal was determined as 0.902 enrichment R.
